# According to the supplement of paper PMC8728848:
# The list shows a part of the results.
# B1: Cohesin-marm-DC-ASGPR (protein)
# chain: LDITSHHHHHHDDLDAVRIKVDTVNAKPGDTVRIPVRFSGIPSKGIANCDFVYSYDPNVLEIIEIEPGDIIVDPNPDKSFDTAVYPDRKIIVFLFAEDSGTGAYAITKDGVFATIVAKVKEGAPNGLSVIKFVEVGGFANNDLVEQKTQFFDGGVNVGDTTEPATPTTPVTTPTTTDDLDAASSKFQRDLVTLRTDFSNFTSNTLAEIQALTSQGSSLQETIASLKAEVEGHKQELQAGASELQEHNKQKAHLGRCPHTCVCPSSFVCVPVHSEILLRVQQLVQDLNKLSCQVAILKNNATTERTCCPINWVEHQGSCYWFSRSGKTWPEAERYCQLENTHLVVINSREEQNFVQAHLGSAYTWMGLSDPEGVWKWVDGTDYSSGFQNWKPGQPDDWQGHGLGGGEDCAHFHPDGRWNDDVCQRSYHWVCEAGLTQASQDSHAS
# Columns and labels:
# Assay in all cases: glycan array binding signal (z-score within array); higher = stronger binding
# Details in all cases: glycan notation: IUPAC condensed, linker removed
# [1] = target: Neu5Ac(a2-6)Gal(b1-4)GlcNAc(b1-2)Man(a1-3)[Man(a1-6)]Man(b1-4)GlcNAc(b1-4)GlcNAc
# In short: (§1)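 Negative Z-scores can be read as non-binding. The Z-score is calculated within each array and then averaged across arrays of one protein sequence at different concentrations or buffers and across linkers. Arrays, 3228 in all, were curated from the Consortium for Functional Glycomics database and kept only where the protein sequence was available.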
# [2] = target: Neu5Ac(a2-6)Gal(b1-4)GlcNAc(b1-2)Man(a1-3)[Neu5Ac(a2-3)Gal(b1-4)GlcNAc(b1-2)Man(a1-6)]Man(b1-4)GlcNAc(b1-4)GlcNAc
# In short: as §1
# [3] = target: Neu5Ac(a2-6)Gal(b1-4)GlcNAc(b1-2)Man(a1-3)[Neu5Ac(a2-6)Gal(b1-4)GlcNAc(b1-2)Man(a1-6)]Man(b1-4)GlcNAc(b1-4)GlcNAc
# In short: as §1
# [4] = target: Neu5Ac(a2-6)Gal(b1-4)GlcNAc(b1-2)Man(a1-3)[Neu5Ac(a2-6)Gal(b1-4)GlcNAc(b1-2)Man(a1-6)]Man(b1-4)GlcNAc(b1-4)[Fuc(a1-6)]GlcNAc
# In short: as §1
# [5] = target: Neu5Ac(a2-6)Gal(b1-4)GlcNAc(b1-2)Man(a1-6)Man(b1-4)GlcNAc(b1-4)GlcNAc
# In short: as §1
# [6] = target: Neu5Ac(a2-6)Gal(b1-4)GlcNAc(b1-2)Man(a1-6)[Gal(b1-4)GlcNAc(b1-2)Man(a1-3)]Man(b1-4)GlcNAc(b1-4)GlcNAc
# In short: as §1
# [7] = target: Neu5Ac(a2-6)Gal(b1-4)GlcNAc(b1-2)Man(a1-6)[GlcNAc(b1-2)Man(a1-3)]Man(b1-4)GlcNAc(b1-4)GlcNAc
# In short: as §1
# [8] = target: Neu5Ac(a2-6)Gal(b1-4)GlcNAc(b1-2)Man(a1-6)[Man(a1-3)]Man(b1-4)GlcNAc(b1-4)GlcNAc
# In short: as §1
# [9] = target: Neu5Ac(a2-6)Gal(b1-4)GlcNAc(b1-2)[Neu5Ac(a2-6)Gal(b1-4)GlcNAc(b1-4)]Man(a1-3)[GlcNAc(b1-4)][Neu5Ac(a2-6)Gal(b1-4)GlcNAc(b1-2)[Neu5Ac(a2-6)Gal(b1-4)GlcNAc(b1-6)]Man(a1-6)]Man(b1-4)GlcNAc(b1-4)GlcNAc
# In short: as §1
# [10] = target: Neu5Ac(a2-6)Gal(b1-4)GlcNAc(b1-2)[Neu5Ac(a2-6)Gal(b1-4)GlcNAc(b1-4)]Man(a1-3)[GlcNAc(b1-4)][Neu5Ac(a2-6)Gal(b1-4)GlcNAc(b1-4)Man(a1-6)]Man(b1-4)GlcNAc(b1-4)GlcNAc
# In short: as §1
# [11] = target: Neu5Ac(a2-6)Gal(b1-4)GlcNAc(b1-2)[Neu5Ac(a2-6)Gal(b1-4)GlcNAc(b1-6)]Man(a1-6)[Neu5Ac(a2-6)Gal(b1-4)GlcNAc(b1-2)Man(a1-3)][GlcNAc(b1-4)]Man(b1-4)GlcNAc(b1-4)GlcNAc
# In short: as §1
# [12] = target: Neu5Ac(a2-6)Gal(b1-4)GlcNAc(b1-3)Gal(b1-3)GlcNAc
# In short: as §1
# [13] = target: Neu5Ac(a2-6)Gal(b1-4)GlcNAc(b1-3)Gal(b1-4)GlcNAc
# In short: as §1
# [14] = target: Neu5Ac(a2-6)Gal(b1-4)GlcNAc(b1-3)Gal(b1-4)GlcNAc(b1-2)Man(a1-3)[Neu5Ac(a2-6)Gal(b1-4)GlcNAc(b1-3)Gal(b1-4)GlcNAc(b1-2)Man(a1-6)]GalNAc
# In short: as §1
# [15] = target: Neu5Ac(a2-6)Gal(b1-4)GlcNAc(b1-3)Gal(b1-4)GlcNAc(b1-3)Gal(b1-4)GlcNAc
# In short: as §1
# [16] = target: Neu5Ac(a2-6)Gal(b1-4)GlcNAc(b1-3)Gal(b1-4)GlcNAc(b1-3)Gal(b1-4)GlcNAc(b1-2)Man(a1-3)[Neu5Ac(a2-6)Gal(b1-4)GlcNAc(b1-3)Gal(b1-4)GlcNAc(b1-3)Gal(b1-4)GlcNAc(b1-2)Man(a1-6)]GalNAc
# In short: as §1
# [17] = target: Neu5Ac(a2-6)Gal(b1-4)GlcNAc(b1-3)Gal(b1-4)GlcNAc(b1-3)GalNAc
# In short: as §1
# [18] = target: Neu5Ac(a2-6)Gal(b1-4)GlcNAc(b1-3)Gal(b1-4)GlcNAc(b1-3)[Neu5Ac(a2-6)Gal(b1-4)GlcNAc(b1-3)Gal(b1-4)GlcNAc(b1-6)]GalNAc
# In short: as §1
# [19] = target: Neu5Ac(a2-6)Gal(b1-4)GlcNAc(b1-3)Gal(b1-4)GlcNAc(b1-6)[Gal(b1-3)]GalNAc
# In short: as §1
# [20] = target: Neu5Ac(a2-6)Gal(b1-4)GlcNAc(b1-3)Gal(b1-4)[Fuc(a1-3)]GlcNAc(b1-3)Gal(b1-4)[Fuc(a1-3)]GlcNAc
# In short: as §1
# [21] = target: Neu5Ac(a2-6)Gal(b1-4)GlcNAc(b1-3)GalNAc
# In short: as §1
# [22] = target: Neu5Ac(a2-6)Gal(b1-4)GlcNAc(b1-3)[Neu5Ac(a2-6)Gal(b1-4)GlcNAc(b1-6)]GalNAc
# In short: as §1
# [23] = target: Neu5Ac(a2-6)Gal(b1-4)GlcNAc(b1-6)GalNAc
# In short: as §1
# [24] = target: Neu5Ac(a2-6)Gal(b1-4)GlcNAc(b1-6)[Gal(b1-3)GlcNAc(b1-3)]Gal(b1-4)Glc
# In short: as §1
# [25] = target: Neu5Ac(a2-6)Gal(b1-4)GlcNAc(b1-6)[Gal(b1-3)]GalNAc
# In short: as §1
# [26] = target: Neu5Ac(a2-6)Gal(b1-4)GlcNAc6S
# In short: as §1
# [27] = target: Neu5Ac(a2-6)GalNAc
# In short: as §1
# [28] = target: Neu5Ac(a2-6)GalNAc(b1-4)GlcNAc
# In short: as §1
# [29] = target: Neu5Ac(a2-6)GalNAc(b1-4)GlcNAc6S
# In short: as §1
# [30] = target: Neu5Ac(a2-6)GlcNAc(b1-4)GlcNAc
# In short: as §1
# [31] = target: Neu5Ac(a2-6)GlcNAc(b1-4)GlcNAc(b1-4)GlcNAc
# In short: as §1
binder,measurement,setting,value
B1,glycan array binding signal (z-score),[1],-0.309
same,glycan array binding signal (z-score),[2],-0.295
same,glycan array binding signal (z-score),[3],-0.126
same,glycan array binding signal (z-score),[4],-0.299
same,glycan array binding signal (z-score),[5],-0.313
same,glycan array binding signal (z-score),[6],-0.303
same,glycan array binding signal (z-score),[7],-0.304
same,glycan array binding signal (z-score),[8],-0.314
same,glycan array binding signal (z-score),[9],-0.301
same,glycan array binding signal (z-score),[10],-0.239
same,glycan array binding signal (z-score),[11],-0.31
same,glycan array binding signal (z-score),[12],-0.302
same,glycan array binding signal (z-score),[13],-0.289
same,glycan array binding signal (z-score),[14],-0.285
same,glycan array binding signal (z-score),[15],-0.293
same,glycan array binding signal (z-score),[16],-0.208
same,glycan array binding signal (z-score),[17],-0.284
same,glycan array binding signal (z-score),[18],-0.295
same,glycan array binding signal (z-score),[19],-0.308
same,glycan array binding signal (z-score),[20],-0.307
same,glycan array binding signal (z-score),[21],-0.225
same,glycan array binding signal (z-score),[22],-0.309
same,glycan array binding signal (z-score),[23],-0.295
same,glycan array binding signal (z-score),[24],-0.222
same,glycan array binding signal (z-score),[25],-0.306
same,glycan array binding signal (z-score),[26],-0.297
same,glycan array binding signal (z-score),[27],0.569
same,glycan array binding signal (z-score),[28],0.541
same,glycan array binding signal (z-score),[29],-0.057
same,glycan array binding signal (z-score),[30],-0.313
same,glycan array binding signal (z-score),[31],-0.312
